Columns and labels:
[1] = molecular target: T1, recombinant soluble human Receptor Activator of Nuclear Factor Kappa-B Ligand (rshRANKL) (human, UniProt O14788 140-317, limits assumed); assay: SPR (Biacore X100), KD compared under substantially similar conditions
T1 construct: also called rhsRANKL
T1 sequence (looked up): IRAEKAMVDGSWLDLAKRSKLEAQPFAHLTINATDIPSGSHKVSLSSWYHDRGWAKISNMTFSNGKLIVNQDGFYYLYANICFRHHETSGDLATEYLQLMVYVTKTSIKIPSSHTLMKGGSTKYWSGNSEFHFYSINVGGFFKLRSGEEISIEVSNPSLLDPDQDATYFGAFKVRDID

[2] = molecular target: T1, recombinant soluble human Receptor …; assay: SPR (Biacore X100), hOPG-hIgG1-Fc captured on Protein A, rshRANKL as analyte, 1:1 Langmuir fit

fold higher affinity compared to Denosumab [1]: ~50 fold
Kd [2]: 0.485 pM
koff [2]: 6.54e-06 s⁻¹
kon [2]: 1.35e+07 M⁻¹ s⁻¹
B1: hOPG-hIgG1-Fc polypeptide of SEQ ID NO. 1 (Fc fusion)
chain: ETFPPKYLHYDEETSHQLLCDKCPPGTYLKQHCTAKWKTVCAPCPDHYYTDSWHTSDECLYCSPVCKELQYVKQECNRTHNRVCECKEGRYLEIEFCLKHRSCPPGFGVVQAGTPERNTVCKRCPDGFFSNETSSKAPCRKHTNCSVFGLLLTQKGNATHDNICSGNSESTQKCGIDVTLCEEAFFRFAVPTKF[letters of human IgG1 Fc left out]
notes: 1 itself; 1 begins with OPG residues 1-215, so residues 1-21 are left out here

Source: patent publication US20170073391A1 (R PHARM OVERSEAS, published 2017)
